Article PMC4336329 (PLoS ONE, 2015)
Out of some 310,000 compounds screened, about 14,000 (4.5%) showed an effect of 50% or more. The effect is printed as a negative number. Some of the results follow.

Molecular target: human ether-à-go-go-related gene (hERG) potassium channel (human, UniProt Q12809)
Test: primary screen, population patch clamp on CHO cells stably expressing hERG
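Further: peak tail current of the secondary pulse compared with the same well before compound.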

Chain of human ether-à-go-go-related gene (hERG) potassium channel (Q12809 whole entry, looked up): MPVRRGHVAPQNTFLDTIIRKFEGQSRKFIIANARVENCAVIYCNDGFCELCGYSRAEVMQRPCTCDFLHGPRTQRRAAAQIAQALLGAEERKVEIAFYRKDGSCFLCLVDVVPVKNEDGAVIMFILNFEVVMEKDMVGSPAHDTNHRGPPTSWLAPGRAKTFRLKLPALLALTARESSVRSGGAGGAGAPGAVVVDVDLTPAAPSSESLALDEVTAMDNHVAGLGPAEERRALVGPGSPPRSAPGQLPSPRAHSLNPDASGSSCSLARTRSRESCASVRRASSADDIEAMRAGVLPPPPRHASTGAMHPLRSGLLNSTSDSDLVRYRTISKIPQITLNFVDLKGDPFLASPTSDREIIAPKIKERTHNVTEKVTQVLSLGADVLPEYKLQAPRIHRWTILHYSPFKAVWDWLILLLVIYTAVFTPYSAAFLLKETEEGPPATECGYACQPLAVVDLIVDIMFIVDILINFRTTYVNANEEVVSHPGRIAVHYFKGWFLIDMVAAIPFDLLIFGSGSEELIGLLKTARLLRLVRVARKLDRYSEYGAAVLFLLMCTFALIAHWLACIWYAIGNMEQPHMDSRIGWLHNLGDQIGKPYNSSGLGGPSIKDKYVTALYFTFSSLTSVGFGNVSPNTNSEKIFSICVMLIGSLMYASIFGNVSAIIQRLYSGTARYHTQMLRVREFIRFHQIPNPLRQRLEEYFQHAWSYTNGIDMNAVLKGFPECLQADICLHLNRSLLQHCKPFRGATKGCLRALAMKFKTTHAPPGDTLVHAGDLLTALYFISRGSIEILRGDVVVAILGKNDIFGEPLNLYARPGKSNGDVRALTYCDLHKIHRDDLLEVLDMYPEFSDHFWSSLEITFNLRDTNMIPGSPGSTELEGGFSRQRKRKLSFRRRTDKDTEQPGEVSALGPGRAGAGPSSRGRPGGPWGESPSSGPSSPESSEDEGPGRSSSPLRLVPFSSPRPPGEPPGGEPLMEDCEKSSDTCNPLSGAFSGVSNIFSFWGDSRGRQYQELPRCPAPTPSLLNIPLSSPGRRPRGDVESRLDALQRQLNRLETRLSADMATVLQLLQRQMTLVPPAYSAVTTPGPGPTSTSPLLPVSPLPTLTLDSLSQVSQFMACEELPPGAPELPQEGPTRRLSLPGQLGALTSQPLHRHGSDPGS

Row | SMILES | hERG current change (%, negative = inhibition) at 10uM [%]
1 | Cn1c(O)c(N=NC(=O)CNC(=O)c2ccccc2)c2cc(Br)ccc21 | -18.8
2 | Cn1c(/C(C#N)=C(\O)c2ccccc2Cl)nc2ccccc21 | 16.4
3 | COc1ccc(-c2nc(SCC(=O)Nc3cc(C)on3)n[nH]2)cc1 | 6.83
4 | CCN1C(=O)/C(=C\N(C)C)c2ccccc21 | 18.5
5 | CN(Cc1nc2ccccc2c(=O)[nH]1)C(=O)c1ccccc1OCc1ccc(Cl)cc1 | -58.2
6 | CCCNCC1COc2ccccc2O1.Cl (centres unmarked) | 23.1
7 | C[C@@]12CCC3[C@@](CCC4[C@@]3(C)CCC[C@@]4(C)C(=O)NC3CCCCC3)(CC1=O)C2 (some centres unmarked) | -4.1
8 | O=S(=O)(Cc1c(F)cccc1Cl)c1ncn[nH]1 | 23.1
9 | COc1ccc(NCc2ccc3c(c2)OCO3)cc1Cl | -4.31
10 | CCN(CC)c1ccc2cc(C(N)=O)c(=O)oc2c1 | 9.31
11 | Cc1cc(C)c(C(=O)N2CCCC(N3CCN(c4ccc(F)cc4)CC3)C2)o1 (centres unmarked) | -73.6
12 | CN(CC(=O)N1CCN(c2ccccc2)CC1)S(=O)(=O)c1cccs1 | -24.8
13 | c1ccc(NC2=NCCS2)cc1 | 14.2
14 | CCCN=C(Nc1ccc(Cl)cc1)c1cccnc1 | -11.5
15 | O=C(NC1CCCCC1)C(c1cccs1)N(CCCN1CCOCC1)C(=O)c1ccc(-c2ccccc2)[nH]1 (centres unmarked) | -66.5
16 | Nc1ccc(Sc2nnnn2-c2ccccc2)c(Cl)c1 | 0.677
17 | COc1ccc(/C=N/NC(=O)c2cccc(NC(C)=O)c2)c(C(=O)O)c1OC | 10.2
18 | COc1nc(N2CCCC2)nc(-n2nnc(C(C)=O)c2C)n1 | 0.253
19 | c1cc2cn[nH]c2cc1NC1CCCCCC1 | -11.6
20 | COc1ccc(C(CNC(=O)CCNC(=O)c2ccc(Br)cc2)N2CCOCC2)cc1 (centres unmarked) | -21.6
21 | COC(=O)[C@H](CCSC)NS(=O)(=O)c1ccccc1Br | 13.8
22 | COc1ccc2cc3c(nc2c1)OCC3 | 14.3
23 | CCN1CCN(Cc2ccc(NC(=O)c3cc(NC(=O)c4ccno4)cc(OC)c3)cc2C(F)(F)F)CC1 | 5.43

Row | SMILES | hERG current change (%, negative = inhibition) at 10uM [%]
24 | COc1cc(CN(C)C)cc(C=O)c1O | 19.4
25 | CCOc1ncccc1C(=O)N1CCN(Cc2ccc3c(c2)OCO3)CC1 | -11.7
26 | O=C(c1ccc(-n2ccnc2)cc1)N1CCCC(CO)(Cc2cccc(Cl)c2)C1 (centres unmarked) | -60.4
27 | CCn1cc(/C=N\NC(=O)c2csc3ccccc23)c(C)n1 | 13.2
28 | COc1ccccc1NS(=O)(=O)c1ccc2oc(SCc3ccc(F)cc3)nc2c1 | -14.9
29 | Cc1ccc(C)c(N(CC(=O)NCC2CCCO2)C(=O)CCC(=O)Nc2nccs2)c1 (centres unmarked) | -0.0198
30 | COC(=O)Cn1c(=O)sc2ccccc21 | -6.65
31 | CCOc1ccc(CCNC(=O)c2cc(C)nn2-c2ccccc2)cc1 | -7.87
32 | O=C(OCC(=O)c1ccc(S(=O)(=O)N2CCCC2)cc1)C1=COCCO1 | 7.22
33 | CCn1c(=S)[nH]c2ccccc21 | 10.9
34 | CS(=O)(=O)N(CC(=O)Nc1ccccc1C(=O)NCc1ccccc1)c1ccc2c(c1)OCCO2 | -30.3
35 | Cc1ccc(C(=O)N/C(=C/c2ccc(Cl)cc2)C(=O)N2CCOCC2)cc1 | -32.6
36 | CC(=O)c1cc(C(=O)c2ccccc2)sc1Nc1ccccc1 | 7.18
37 | CC(Oc1ccccc1)C(=O)Nc1ccc(S(=O)(=O)Nc2nccs2)cc1 (centres unmarked) | 16.9
38 | C=CCn1c(Br)nc2c1c(=O)n(C)c(=O)n2C | -30.6
39 | COc1ccc(C(NC(=O)CN2C(=O)NC3(CCc4ccccc43)C2=O)c2ccccc2)cc1 (centres unmarked) | -12.9
40 | C=CCN1C(=O)CSC1=Nc1ccc(O)cc1 | 5.79
41 | CCc1cc(OCCOCCN(C)C)ccc1Cl.O=C(O)C(=O)O | -28.3
42 | CCOc1ncccc1C(=O)OCC(=O)c1ccc(OC)c(OC)c1 | 3.64
43 | O=C1/C(=C/c2ccc([N+](=O)[O-])cc2)C=C(c2ccccc2)N1c1ccc(O)cc1 | 11.2
44 | COc1ccc(-c2nc(CS(=O)CC(=O)NCc3ccco3)c(C)o2)cc1OC (centres unmarked) | -13.9
45 | Cc1c(C)c(C)c(S(=O)(=O)N2CCSCC2)c(C)c1C | 10.8
46 | Cc1cn2c(=O)c(C(=O)N3CCN(c4ccccc4Cl)CC3)cnc2s1 | -62.8

Row | SMILES | hERG current change (%, negative = inhibition) at 10uM [%]
47 | CC(C)CC12CN3CCN(CC(C3)C1O)C2 (centres unmarked) | -1.15
48 | COc1ccc(NC(=O)COC(=O)c2ccc(N3CCCC3=O)cc2)cc1 | 20.1
49 | Cc1cccc(NC(=O)c2ccc(C(=O)c3ccccc3)cc2)n1 | -18.2
50 | Cc1ccc(NC(=O)CC(C(=O)O)c2ccccc2)cc1 (centres unmarked) | 8.15
51 | CN(C)c1oc(-c2ccccc2[N+](=O)[O-])nc1C#N | 22
52 | O=c1c2ccccc2ncn1-c1ccc(Br)cc1[N+](=O)[O-] | -61.4
53 | CN(CC(=O)Nc1ccc(Br)cc1)Cc1ccccc1 | 0.267
54 | CC1CCC(NC(=O)c2ccc3c(c2)S(=O)(=O)c2ccccc2C3=O)CC1 (centres unmarked) | -17.4
55 | CC(C)C(=O)NC(=S)Nc1ccc(S(=O)(=O)NC2CCCCC2)cc1 | 5.83
56 | CCn1c(N)c(C(=O)NC2CCCCC2)sc1=S | -5.55
57 | O=C(Nc1ccccc1)c1sc(N2CCOCC2)nc1-c1ccccc1 | 1.24
58 | CN(c1ccccc1)S(=O)(=O)c1ccc(NC(=S)NC(=O)c2ccccc2)cc1 | -1.27
59 | Cc1nn(-c2ccc(F)cc2)c(C)c1CN1CCN(Cc2ccccc2)C(CCO)C1 (centres unmarked) | -44.2
60 | NCCNc1cc(N2CCCC2)ccc1[N+](=O)[O-] | 4.66
61 | CNC(=O)c1cc(C(=O)c2ccc(F)cc2Cl)c[nH]1 | 14.5
62 | Cc1nc2ccccn2c1-c1ccnc(SCc2ccc(Cl)cc2)n1 | 15.8
63 | C(=N\N1CCOCC1)/c1ccsc1.O=P(O)(O)O | 18.8
64 | C(=N\c1nccs1)/c1c[nH]c2ccccc12 | 13.4
65 | Cc1nn(-c2ccccc2)c(CC(C)(C)C(=O)O)c1C(=O)O | 0.758
66 | Brc1ccc2nc(-c3cccs3)c(NCC3CCCO3)n2c1 (centres unmarked) | -52.6
67 | O=C(Cc1ccc(Br)cc1)NC1CCSC1=O (centres unmarked) | 31.5
68 | CCC(=O)N1CCCc2cc(S(=O)(=O)N3CCC(N4CCCCC4)CC3)ccc21 | 5.89
69 | COc1ccc(/C=C/C2=CCN(Cc3ccc(OC)cc3)CC2)cc1.Cl | -72.3

Row | SMILES | hERG current change (%, negative = inhibition) at 10uM [%]
70 | CCN(Cc1ccccc1)C(=O)CSc1n[nH]c(N)n1 | 33.6
71 | CCN(CC)S(=O)(=O)c1ccc(-c2cc(C(=O)OC)sc2C(F)(F)F)cc1 | 12.1
72 | CSCc1ccc(C(=O)NCCSc2ccc(Br)cc2)cc1 | 13.8
73 | Cc1ccc(N/N=C/c2c(O)cc(C)oc2=O)cc1 | 9.54
74 | CCN(CC)CCCN1C(=O)CSC1c1ccc2c(c1)OCO2.Cl (centres unmarked) | -39.2
75 | CCOc1ccc(N=Nc2c(=O)[nH]n3c(=O)c4c([nH]c23)CCCC4)cc1 | 13.5
76 | CCOC(=O)C1CCN(Cc2ccc(OC)cc2OC)CC1 | -45.2
77 | O=C(COC(=O)c1cccc(S(=O)(=O)N2CCc3ccccc32)c1)Nc1ncc(C(F)(F)F)cc1Cl | 9.53
78 | CCN(CC)C(=O)OCCc1cc2ccccc2c(=O)o1 | 15.3
79 | CC(=O)Cc1nsc(Nc2ccc(Cl)cc2)n1 | 3.14
80 | C/C(=N\NC(=O)CSCc1ccccc1Cl)c1cccc(NC(=O)c2ccccc2)c1 | 12.5
81 | CCn1cnc2c1c(=O)n(CC(=O)OC(C)C(N)=O)c(=O)n2Cc1ccccc1 (centres unmarked) | 22.6
82 | CC(C)c1nc2sc3c(=S)nc[nH]c3c2c2c1CCC2 | 6.6
83 | COc1ccc(/C=C(/NC(=O)c2ccc([N+](=O)[O-])cc2)C(=O)NCCCN(C)C)cc1 | -93.4
84 | C[C@H](NC(=O)Nc1ccccc1F)C(=O)O | 9.74
85 | C=CCNS(=O)(=O)c1cccc(C(C)=O)c1 | 8.11
86 | O=C(NCCC1=CCCCC1)C(=O)NCCc1ccc(Cl)cc1 | 0.624
87 | COC(=O)C1=C(c2ccc(Cl)c(C(F)(F)F)c2)C[C@@H]2CC[C@H]1N2C(=O)NCc1ccc2c(c1)OCO2 | -12.9
88 | CC1=C(C(=O)OC2CCCCCC2)C(c2ccc(C)o2)C2=C(CCCC2=O)N1 (centres unmarked) | 8.56
89 | Cc1ccc2nc(SCC(=O)NCc3ccccc3Cl)nc(=O)n2c1 | -5.39
90 | Cc1nc2nc[nH]n2c(=O)c1NS(=O)(=O)c1ccc(C(C)(C)C)cc1 | 20.8
91 | N#Cc1ccccc1NC(=O)CSc1nnc(-c2ccncc2)o1 | 18.3
92 | Cc1cc(C(=O)OCC(=O)Nc2cc(C(F)(F)F)ccc2N2CCOCC2)c(C)o1 | -0.421
